Reference: PubChem BioAssay AID485364 (National Center for Advancing Translational Sciences (NCATS), 2010)
In all, about 360,000 compounds went through this assay and about 11,000 (3.1%) were called active. The shares of active, inactive and inconclusive entries below differ from those in the screen. The call rests on the fitted dose curve; in most records, active means well fitted inhibition curve with a large enough effect; inconclusive means small, poorly fitted or top-dose-only effect; inactive means no such curve, though single readings can be large or run the other way. Potencies of inconclusive entries are left out as doubtful fits.

Molecular target: Schistosoma mansoni thioredoxin glutathione reductase (TGR) (UniProt Q962Y6)
Assay: qHTS Assay for the Inhibitors of Schistosoma Mansoni Peroxiredoxins; further: nearly all actives have a fitted effect of over 60% in size
Settings: purified TGR, DTNB reduction, TNB absorbance 405 nm; activity change, negative = inhibition: at 114 µM (top of the series) unless noted
In short: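 Kinetic colorimetric format: TGR-catalysed, NADPH-driven DTNB reduction monitored via TNB absorbance. Enzyme dispensed at 20 nM; compound exposure 15 min at room temperature before reaction start.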
On the % scale 0 is the no-effect control and ±100 the full control effect; potency means the concentration at half of the fitted maximal effect; tags describe the fitted curve by direction and shape.

Compound	Potency	activity change, negative = inhibition
Cc1cc(-c2nsc(=O)o2)c(S(C)(=O)=O)s1	inconclusive [inhibitor, partial curve]	–
FC(F)C(F)(F)C1=CC(c2cccs2)=NCCN1	inconclusive [inhibitor, partial curve]	–
O=C(CSc1nc2cccnc2n1Cc1ccccc1)NCc1ccco1	inconclusive [inhibitor, partial curve]	–
O=C(Nc1cccnc1)c1ccc(NS(=O)(=O)c2cc([N+](=O)[O-])ccc2Cl)cc1	active: 31.6 µM	–
CCc1ccc(CN(C)C(=O)c2ccc3c(=O)n4c(nc3c2)CCC4)cc1	inconclusive [inhibitor, full curve, poor fit]	–
NS(=O)(=O)c1ccc(-c2ccc(C=C3C(=O)NC(=S)NC3=O)o2)cc1	active: 2.24 µM	–
CCCCSc1nc(SCC(=O)NCc2ccco2)c2c3c(sc2n1)COC(C)(CC)C3 (stereo not drawn)	inconclusive [inhibitor, partial curve]	–
O=C1NC(c2cn(-c3ccccc3)nc2-c2cccs2)C(C(=O)c2cccnc2)C(O)(C(F)(F)F)N1 (stereo not drawn)	inconclusive [inhibitor, partial curve]	–
Cc1cc(C(=O)COC(=O)C2CCN(C(=O)c3ccc(Cl)cc3)CC2)c(C)n1CC1CCCO1 (stereo not drawn)	inconclusive [inhibitor, full curve, poor fit]	–
Oc1c(Br)cc(C2N=C(c3ccccc3Cl)NO2)cc1Br (stereo not drawn)	inconclusive [inhibitor, single point]	–
CCN1CCc2nc(NC(=O)Cc3ccc4c(c3)OCCO4)sc2C1	inconclusive [inhibitor, partial curve]	–
CCCN1C(=O)/C(=C/c2ccc(C)o2)SC1=Nc1ccc(OCC)cc1	inconclusive [inhibitor, single point]	–
O=C(Nc1ccccc1N1CCCC1)c1cccnc1Cl	inconclusive [inhibitor, single point]	–
CCOC(=O)N/N=C(C)/C=C/c1ccco1	active: 31.6 µM	–
COc1ccc(S(=O)(=O)Cc2ccc(C(=O)N3CC(C)CC(C)C3)o2)cc1 (stereo not drawn)	inconclusive [inhibitor, single point]	–
O=C(NCC1CCCO1)c1cc2c([nH]c3ccccc32)c(-c2cccc(Cl)c2)n1 (stereo not drawn)	–	inactive: -23.4%
CCC1C(=O)NCCN1Cc1nc(-c2ccc(C)s2)oc1C (stereo not drawn)	active: 39.8 µM	–
O=C1CC(Sc2ccc(Cl)cc2)C(=O)N1c1ccc2c(c1)OCCO2 (stereo not drawn)	active: 3.98 µM	–
O=C(NCc1ccccc1Cl)c1ccc(CS(=O)Cc2ccc(Cl)cc2)o1 (stereo not drawn)	inconclusive [inhibitor, partial curve]	–
CCCC1S/C(=N/N=C/c2ccc(OC)cc2)N(Cc2ccc(OC)cc2)C1=O (stereo not drawn)	–	inactive: 9.1%
CCOC(=O)c1c(/N=C/C2C(=O)NC(=S)NC2=O)sc(C)c1C	inconclusive [inhibitor, full curve]	–
Cc1ccc(NC(=O)CN2CCCN(S(=O)(=O)c3ccc(Br)s3)CC2)cc1	inconclusive [inhibitor, partial curve]	–
COc1ccc(-c2[nH]ncc2CN2CCCO2)c(F)c1	inconclusive [inhibitor, full curve]	–
O=C(NCc1ccccc1)c1cccc(COc2ccc(Cl)cc2)c1	–	inactive: 6.37%
Oc1ccc(/C=N/Nc2ccccc2)cc1	inconclusive [inhibitor, partial curve]	–

Compound	Potency	activity change, negative = inhibition
CCCOC1CCCN(C(=O)c2ccc(OC3CCN(C(=O)COC)CC3)cc2)C1 (stereo not drawn)	inconclusive [inhibitor, partial curve]	–
O=S1(=O)CC(O)C(N=Nc2c(O)n(Cc3ccccc3)c3ccccc23)C1 (stereo not drawn)	inconclusive [inhibitor, partial curve]	–
Cc1cc(C)cc(NC(=O)CSCc2cc(=O)n3ccsc3n2)c1	–	inactive: -6.31%
NC(=O)c1ccccc1NC(=S)NC(=O)c1ccc(Br)o1	inconclusive [inhibitor, full curve]	–
CCOc1ccccc1Nc1ncnc2ccccc12	inconclusive [inhibitor, partial curve, poor fit]	–
CCOC(=O)N1CCN(Cc2cc(=O)oc3cc4c(cc23)CCC4)CC1	inconclusive [inhibitor, partial curve, poor fit]	–
Cc1ccc2[nH]c(C(=O)O)c(NC(=O)CN3CCN(c4cccc(C)c4C)CC3)c2c1	inconclusive [inhibitor, single point]	–
COc1ccc(Nc2cc(C(=O)NCc3ccccc3)c3ccccc3n2)cc1	–	inactive: -2.51%
COc1ccc(/C=N/Nc2snc(SC)c2C#N)cc1OC	–	inactive: -14.9%
Cc1ccsc1C1C2=C(CC(C)(C)CC2=O)Nc2ncnn21 (stereo not drawn)	inconclusive [inhibitor, single point]	–
CN(C)S(=O)(=O)c1cccc(NC(=S)NCc2ccco2)c1	active: 35.5 µM	–
CCc1cc(SC#N)cc(C)c1N	–	inactive: 5.8%
CC(C)Oc1cccc(C(=O)NC(=S)Nc2ccccc2)c1	inconclusive [inhibitor, partial curve]	–
Cc1nc2ncnn2c(N2CCN(C(c3ccccc3)c3ccccc3)CC2)c1C	inconclusive [inhibitor, partial curve]	–
Cc1nc2ccccc2c2oc(C(=O)NCCCN3CCC(C)CC3)cc12	inconclusive [inhibitor, single point]	–
C=CCn1c(SCC(=O)NC)nnc1C12CC3CC(CC(C3)C1)C2	inconclusive [inhibitor, full curve, poor fit]	–
COc1ccc(Cn2c(C)c(C)c(C#N)c2NC(=O)Nc2ccc(Cl)cc2)cc1	–	inactive: -14.4%
O=C(CC1C(=O)NCCN1Cc1cccc(F)c1)NC1CCCCCC1 (stereo not drawn)	inconclusive [inhibitor, full curve]	–
CC(=O)c1ccc(NC(=O)/C=C/c2ccc(C)o2)cc1	active: 11.2 µM	–
Cc1cc(C)c(NC(=O)Cn2nnc(-c3nc(-c4ccncc4)no3)c2N)c(C)c1	–	inactive: 0.647%
COc1cc(OC)c(OC)cc1CNCCc1ccc2c(c1)OCO2	active: 39.8 µM	–
O=C(Cn1c(=O)n(CC2CCCO2)c(=O)c2ccccc21)c1ccccc1 (stereo not drawn)	–	inactive: 5.6%
O=c1c2ccccc2nc(CN2CCCCCC2)n1-c1ccc(F)cc1	inconclusive [inhibitor, partial curve, poor fit]	–
COC(=O)c1ccc(NC(=O)c2ccco2)cc1	inconclusive [inhibitor, full curve]	–
Cc1ccc(-c2nnc(N(C)C(=O)c3cccnc3)s2)cn1	–	inactive: 14.8%

Compound	Potency	activity change, negative = inhibition
COc1ccccc1N1CCN(C(=O)CCCCCn2c(=O)[nH]c3ccsc3c2=O)CC1	–	inactive: 14.6%
O=C(NC(=S)Nc1ccc(O)cc1)C1CCCC1	inconclusive [inhibitor, partial curve]	–
CCn1ncc(Br)c1C(=O)Nc1ccccc1C(F)(F)F	–	inactive: 2.27%
Cc1c(Cl)cccc1NC(=O)CS(=O)(=O)c1ccccc1	inconclusive [inhibitor, full curve, poor fit]	–
NC(=S)N/N=C/c1ccc(-c2cc(Cl)cc(Cl)c2)o1	inconclusive [inhibitor, single point]	–
CN(C)C(CNC(=O)c1cccc(S(=O)(=O)Nc2ccc(Br)cc2)c1)c1ccco1 (stereo not drawn)	active: 35.5 µM	–
O=C(Nc1cccc(-c2nc3cc(Cl)ccc3o2)c1)c1ccc(F)cc1	inconclusive [inhibitor, single point]	–
Cc1ccc(-n2nc3c(c2NC(=O)c2ccco2)CS(=O)(=O)C3)c(C)c1	inconclusive [inhibitor, partial curve]	–
O=C(NNC(=S)NC(=O)c1ccc(Br)cc1)c1ccc([N+](=O)[O-])cc1	active: 100 µM	–
O=C(O)c1cccc2c1NC(C(=O)O)C1CC(Sc3ccccc3[N+](=O)[O-])C(Cl)C21 (stereo not drawn)	inconclusive [inhibitor, partial curve]	–
COc1ccc(-c2cc(OC(=O)c3ccc(F)cc3)c3c(C)oc(C)c3c(=O)c2)cc1	active: 35.5 µM	–
C=CCn1cnc2c(c1=O)c1nc3ccccc3nc1n2/N=C/c1cccc(OC)c1	–	inactive: -8.02%
O=C(CSc1nc2ccccc2s1)N1c2ccccc2Sc2ccc(C(F)(F)F)cc21	–	inactive: 3.9%
Fc1ccc(-c2ccc(-c3nn4c(-c5ccco5)nnc4s3)o2)cc1	active: 50.1 µM	–
CCC1C(=O)NCCN1C(=O)c1cccc(OC2CCN(S(=O)(=O)N(C)C)CC2)c1 (stereo not drawn)	–	inactive: -1.63%
COC(CN(C(=O)CCl)C(C(=O)NC1CCCCC1)c1ccc(Cl)cc1)OC (stereo not drawn)	active: 22.4 µM	–
COc1ccc(CN2CCNC(=O)C2CC(=O)N(C)CC2CCOCC2)cc1OC (stereo not drawn)	inconclusive [inhibitor, partial curve]	–
Cc1ccc(NC(=O)C2CCCN(S(=O)(=O)c3c(C)n[nH]c3C)C2)cc1Cl (stereo not drawn)	inconclusive [inhibitor, single point]	–
COc1ccccc1N1C(=O)CC(Sc2n[nH]c(-c3cccc(C)c3)n2)C1=O (stereo not drawn)	active: 0.631 µM	–
COc1ccc(C2c3[nH]c4ccccc4c3C[C@H]3C(=O)N(c4ccccc4C(=O)N4CCC[C@@H]4C(=O)O)C(=O)N23)cc1 (stereo partly drawn)	–	inactive: 1.64%
Cc1ccc(/C=C/C(=O)O)cc1S(=O)(=O)NCc1ccco1	active: 31.6 µM	–
c1coc(-c2nc(-c3ccncc3)no2)c1	–	inactive: 1.89%
COc1cc(Cl)c(NC2=CC(=O)C(=O)c3ccccc32)c(OC)c1	inconclusive [inhibitor, partial curve]	–
